The values that follow come from PubChem BioAssay AID360 (National Center for Advancing Translational Sciences (NCATS), 2006).

About 550 (1.1%) of roughly 48,000 compounds were called active. Roughly 4% stayed inconclusive and do not appear here. No stated cut-off is given here; in the data, active means potency below about 15 µM; inconclusive means mostly about 16 µM to 33 µM; inactive means weaker than that. This is one part of the list.
Potency means the concentration at half of the fitted maximal effect.

UniProt P04062, sequence (P04062 whole entry, looked up): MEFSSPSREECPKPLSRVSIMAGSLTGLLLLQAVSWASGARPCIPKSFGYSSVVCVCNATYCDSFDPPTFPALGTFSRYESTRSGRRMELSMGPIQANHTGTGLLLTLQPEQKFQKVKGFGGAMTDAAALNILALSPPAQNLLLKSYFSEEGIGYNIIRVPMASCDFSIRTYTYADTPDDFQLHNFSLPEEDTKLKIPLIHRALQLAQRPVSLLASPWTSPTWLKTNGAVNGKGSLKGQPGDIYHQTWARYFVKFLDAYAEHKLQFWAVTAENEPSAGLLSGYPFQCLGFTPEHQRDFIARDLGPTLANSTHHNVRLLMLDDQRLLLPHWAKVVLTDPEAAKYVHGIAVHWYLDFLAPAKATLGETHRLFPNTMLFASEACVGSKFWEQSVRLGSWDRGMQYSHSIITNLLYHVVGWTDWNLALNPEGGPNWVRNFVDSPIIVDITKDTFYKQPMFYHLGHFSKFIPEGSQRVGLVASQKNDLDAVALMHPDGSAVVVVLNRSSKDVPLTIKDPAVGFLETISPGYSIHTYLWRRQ

The target of the assay is Lysosomal acid glucosylceramidase (Homo sapiens) (UniProt P04062). The assay is described as follows: Glucocerebrosidase.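 Further: the screen sought inhibitors.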 Particulars: purified enzyme, resorufin glucoside fluorescence (screen aimed at inhibitors), 20 min. An outline of the steps:
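Compounds titrated against 0.2 nM normal enzyme, 30 uM resorufin beta-D-glucopyranoside substrate, citrate/phosphate buffer with taurocholate and tween-20, pH 5.9. Reaction ran 20 min at room temperature; fluorescence (Ex 548/Em 600) gave AC50.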
With `CCOc1ccccc1N1CCN(CC(=O)Nc2nnc(CC)s2)CC1`, the Potency was inactive: > 76.9 µM.

Take `CCOc1cc2[nH]c(=O)n(CC3CCC(C(=O)NC(C)CC)CC3)c(=O)c2cc1OCC` (configuration not stated): the Potency is inactive: > 76.9 µM.

Regarding `O=C(Oc1ccc(Br)cc1)C1CC(=O)N(c2ccc(F)cc2)C1` (configuration not stated), the Potency was inactive: > 76.9 µM.

`O=C(COc1ccccc1)N1CCN=C1c1ccccc1`: the Potency is inactive: > 76.9 µM.

As to `C=CCNC(=O)CC(C)C(CCCCC)C(=O)O` (configuration not stated), the Potency is inactive: > 76.9 µM.

As to `O=C(CCc1ccccc1)Nc1nc2n(n1)C(c1ccccc1)CC(=O)N2` (configuration not stated), the Potency is inactive: > 76.9 µM.

For `C=CCOc1cccc(C2/C(=C(\O)c3ccc(F)cc3)C(=O)C(=O)N2CCN(C)C)c1` (configuration not stated), the Potency was inactive: > 76.9 µM.

Turning to `Cc1ccc(O)c(Sc2cc(C)ccc2O)c1`, the Potency was inactive: > 76.9 µM.

Regarding `COc1ccc(C2NC3=C(CCC3)C3(C#N)C4(N=C(N)C23C#N)OCCO4)cc1` (configuration not stated), the Potency was inactive: > 76.9 µM.

Consider `Cc1n[nH]c(C)c1S(=O)(=O)N1CCC(C(=O)O)CC1`, for which the Potency is inactive: > 76.9 µM.

For `CCN(CC)S(=O)(=O)c1ccc(S(=O)(=O)Nc2cc3c(cc2C(C)=O)OCO3)cc1`, the Potency was active: 14.9 µM.

With `COc1ccccc1N1CCN(C(=O)C2c3ccccc3Oc3ccccc32)CC1`, the Potency is inactive: > 76.9 µM.

Take `Cc1ccc(-c2sc(C)nc2CC(=O)O)cc1`: the Potency was inactive: > 76.9 µM.

On to `COc1ccc(/C(O)=C2\C(=O)C(=O)N(CC3CCCO3)C2c2cc(OC)ccc2OC)cc1` (configuration not stated), for which the Potency is inactive: > 76.9 µM.

In the case of `CCCCN1CCc2c([nH]c3c(C)cccc23)C1=O`, the Potency was active: 9.79 µM.

Regarding `Cc1c(NS(=O)(=O)c2ccc(Br)s2)c(=O)n(-c2ccccc2)n1C`, the Potency was inactive: > 76.9 µM.

For `COc1cccc(CNC(=O)Nc2cccs2)c1`, the Potency was inactive: > 76.9 µM.

In the case of `CNCCCc1[nH]nc(N)c1C#N`, the Potency is inactive: > 76.9 µM.

As to `CCCCn1c(SCC(=O)Nc2nnc(C)s2)nc2c1c(=O)n(C)c(=O)n2C`, the Potency is inactive: > 76.9 µM.

As for `CCOC(=O)C1=C(C)OC(N)=C(C#N)C1c1ccsc1` (configuration not stated), the Potency was inactive: > 76.9 µM.

With `O=C(Cn1nnc(-c2ccccc2NC(=O)c2ccco2)n1)Nc1ccccc1`, the Potency is inactive: > 76.9 µM.

As to `CN(Cc1ccccc1)C(=O)CCNS(=O)(=O)c1ccc2c(c1)oc(=O)n2C`, the Potency is inactive: > 76.9 µM.

`Cc1cc(C)nc(-n2nc(C)cc2NC(=O)CN2CCC(C)CC2)n1`: the Potency was inactive: > 76.9 µM.

As for `COc1cc(C)c(S(=O)(=O)NC2CC(C)(C)NC(C)(C)C2)cc1C`, the Potency was inactive: > 76.9 µM.

Regarding `O=C1CCCN1CN(C(=O)c1ccc2c(c1)OCO2)c1cccc(Cl)c1`, the Potency is inactive: > 76.9 µM.

With `CCOC(=O)c1[nH]c(CSc2nnc(-c3ccncc3)n2CCOC)c(C(=O)OCC)c1C`, the Potency is inactive: > 76.9 µM.

Regarding `CCCCCOC(=O)Cn1c(N2CCOCC2)nc2c1c(=O)[nH]c(=O)n2C`, the Potency is inactive: > 76.9 µM.

As for `O=C(NCC(=O)N(c1ccc2c(c1)OCO2)C(C(=O)NC1CCCC1)c1cccs1)c1ccco1` (configuration not stated), the Potency is inactive: > 76.9 µM.

As to `CCn1cc(Br)c(C(=O)NCc2ccco2)n1`, the Potency was inactive: > 76.9 µM.

Consider `COc1ccc(-c2cc(C(F)(F)F)nc(NCc3ccco3)n2)cc1OC`, for which the Potency is inactive: > 76.9 µM.

On to `CCc1ccc2c(CN3CCc4ccccc43)cc(=O)oc2c1`, for which the Potency was inactive: > 76.9 µM.

Consider `CCC(C)COC(=O)c1ccc(C(=O)O)cc1` (configuration not stated), for which the Potency was inactive: > 76.9 µM.

For the molecule `O=C(CCS(=O)(=O)c1cccc2nonc12)N1CCOCC1`, the Potency is inactive: > 76.9 µM.

For `COc1nc(NCCN2CCOCC2)nc(Nc2ccccc2)n1`, the Potency was inactive: > 76.9 µM.

`O=C(O)CCSCC(=O)Nc1c(C(=O)C2CC2)oc2ccccc12`: the Potency is inactive: > 76.9 µM.

On to `CCCc1cc(=O)[nH]c(Nc2cc(OC)ccc2OC)n1`, for which the Potency was inactive: > 76.9 µM.

For `COc1ccc(OCCC(=O)NCc2ccccc2)cc1`, the Potency is inactive: > 76.9 µM.

Consider `CCSc1nnc(NC(=O)CSc2nccn2-c2cccc(C)c2)s1`, for which the Potency is inactive: > 76.9 µM.

With `CCc1cc(C)cc(OCCNC(=O)c2ncn[nH]2)c1`, the Potency is inactive: > 76.9 µM.

Turning to `COCCN(CCOC)S(=O)(=O)c1ccc(C(=O)Nc2nc(-c3ccncc3)cs2)cc1`, the Potency is inactive: > 76.9 µM.

With `COc1ccccc1N1C(=O)C2C3C=CC(C3)C2C1=O` (configuration not stated), the Potency was inactive: > 76.9 µM.

Take `CC(Sc1ccc(Br)cc1)C(N)=O` (configuration not stated): the Potency is inactive: > 76.9 µM.

In the case of `Cc1[nH]nc2c1C(c1ccc(F)cc1)C(C#N)=C(N)O2` (configuration not stated), the Potency is inactive: > 76.9 µM.

For the molecule `CC(=O)Nc1ccc(C(=O)CSc2nnc(C)o2)cc1`, the Potency was inactive: > 76.9 µM.

`CON(C)c1nc(Oc2ccc(=O)[nH]n2)nc(N(C)C)n1`: the Potency was inactive: > 76.9 µM.

As for `Cn1c(NC(=O)c2ccc(Br)o2)cc(=O)n(C)c1=O`, the Potency is inactive: > 76.9 µM.

For the molecule `COCCn1c(=S)[nH]c2cc(C(=O)N3CCN(c4ccc(F)cc4)CC3)ccc2c1=O`, the Potency is inactive: > 76.9 µM.

Turning to `COC(=O)Nc1ccc(S(=O)(=O)N2CCN(c3ccc(F)cc3)CC2)cc1`, the Potency is inactive: > 76.9 µM.

Regarding `Cc1cc(C)nc(N2CCCC(C(=O)Nc3ccc4c(c3)OCO4)C2)n1` (configuration not stated), the Potency was inactive: > 76.9 µM.

Take `COC(=O)c1ccc(S(=O)(=O)NCCSc2nnc3c4ccccc4n(C)c3n2)cc1`: the Potency is inactive: > 76.9 µM.

As for `CCOc1ccccc1NC(=O)c1ccccc1-c1nc(-c2ccccc2)no1`, the Potency is inactive: > 76.9 µM.

As to `O=c1[nH]c(SCc2cc(=O)n3ccccc3n2)nc2c1CCC2`, the Potency was inactive: > 76.9 µM.

For `CC(C)CCOCC(=O)Nc1cccc(C(=O)O)c1`, the Potency was inactive: > 76.9 µM.

With `Cc1nn(CCO)c(C)c1Oc1ccccc1O`, the Potency was inactive: > 76.9 µM.

As for `COCCn1nnnc1CN(Cc1cc2cc(OC)c(OC)cc2[nH]c1=O)C1CCCC1`, the Potency is inactive: > 76.9 µM.

With `CC1CCC(C(C)C)C(OC(=O)COC(=O)c2ccc(=O)[nH]c2)C1` (configuration not stated), the Potency result was “inactive”.

As to `COCCNS(=O)(=O)c1ccc(OCC(=O)OC)c(Cl)c1`, the Potency was inactive: > 76.9 µM.

Take `CCC(Sc1ncccc1C(=O)OCCN1CCCC1=O)C(=O)NCc1ccco1` (configuration not stated): the Potency was inactive: > 76.9 µM.

In the case of `O=C(NCc1ccc2c(c1)OCO2)C1CCC(CNS(=O)(=O)c2ccccc2)CC1` (configuration not stated), the Potency was inactive: > 76.9 µM.

Consider `O=C(CN1CCN(c2ccccn2)CC1)NC1CCCC1`, for which the Potency is inactive: > 76.9 µM.

For the molecule `Cc1cccc(OCc2nnc(SCC(=O)N3CCCC3)n2C)c1`, the Potency was inactive: > 76.9 µM.

In the case of `Cn1cccc1Cc1nnc(SCC(=O)NCc2ccc3c(c2)OCO3)n1CCc1ccccc1`, the Potency is inactive: > 76.9 µM.

Turning to `Cc1nn(C)cc1C(N)=O`, the Potency was inactive: > 76.9 µM.

As for `CC(C)NC(=O)c1ccccc1NC(=O)CCS(=O)(=O)Cc1ccccc1`, the Potency is inactive: > 76.9 µM.

As to `Cc1ccc2cc(C#N)c(SCC(=O)NCC3CCCO3)nc2c1C` (configuration not stated), the Potency was inactive: > 76.9 µM.

As for `COc1ccc(NC(=O)CC(=O)Nc2ccc(OC)cc2OC)c(OC)c1`, the Potency is inactive: > 76.9 µM.

Take `Cn1c(-c2nonc2NC(=O)c2ccc(C(C)(C)C)cc2)nc2ccccc21`: the Potency is inactive: > 76.9 µM.

Take `O=C(CSc1nnc(-c2ccc(S(=O)(=O)N3CCCC3)cc2)o1)NCc1ccco1`: the Potency is inactive: > 76.9 µM.

Take `CCSc1nnc2c(n1)OC=Nc1ccc(Br)cc1-2`: the Potency is inactive: > 76.9 µM.

As to `CCCn1cc(S(=O)(=O)CC(=O)Nc2ccc(OC)cc2OC)c2ccccc21`, the Potency is inactive: > 76.9 µM.

Turning to `c1ccc2c(-n3cccn3)cccc2c1`, the Potency is inactive: > 76.9 µM.

On to `CN(C)c1ccc2c(O)cc(=O)n(C)c2c1`, for which the Potency is inactive: > 76.9 µM.

For `O=C1CC(=O)N(Cc2cccs2)C(=O)N1`, the Potency is inactive: > 76.9 µM.

Turning to `Cc1ccc(S(=O)(=O)c2c(C)nn(C(C)(C)C)c2OC(=O)c2ccc(Br)o2)cc1`, the Potency was active: 12.5 µM.

Regarding `CCC(C(=O)Nc1ncccn1)(C(F)(F)F)C(F)(F)F`, the Potency is inactive: > 76.9 µM.

As to `O=C(Nc1ccccn1)NC12CC3CC(CC(C3)C1)C2`, the Potency was inactive: > 76.9 µM.

Regarding `COc1ccc(CCNC(=O)c2ccn[nH]2)cc1OC`, the Potency was inactive: > 76.9 µM.

As to `CCc1ccccc1NC(=O)CC(O)(C(=O)OC)C(F)(F)F` (configuration not stated), the Potency was inactive: > 76.9 µM.

As for `O=C(O)Cn1c(SC2CCCCC2)nc2ccccc21`, the Potency was inactive: > 76.9 µM.

Turning to `CS(=O)(=O)N(CC(=O)NCCC1=CCCCC1)c1ccc2c(c1)OCO2`, the Potency was inactive: > 76.9 µM.

As for `COc1ccc(NC(=O)C2CCCN(S(=O)(=O)c3cccc4nonc34)C2)c(OC)c1` (configuration not stated), the Potency was inactive: > 76.9 µM.

Regarding `C=CCn1c(SCc2nc3ccccc3c(=O)[nH]2)nnc1-c1cc2cc(Cl)ccc2o1`, the Potency is inactive: > 76.9 µM.

As for `O=C(Nc1ccc(F)cc1)N1CCN(c2nc3ccccc3s2)CC1`, the Potency was inactive: > 76.9 µM.

With `CCOC(=O)c1ccc(-n2c(=S)sc3c(=O)[nH]c(C)nc32)cc1`, the Potency was active: 6.79 µM.

Take `O=C(CNCC1CCCO1)Nc1ccc(N2CCCCCC2)cc1` (configuration not stated): the Potency entry is “inactive”.

As for `Cc1sc2ncn(CCC(=O)O)c(=O)c2c1C`, the Potency was inactive: > 76.9 µM.

For the molecule `O=C(O)C1C2C=CC(O2)C1C(=O)NCc1ccc(Cl)cc1` (configuration not stated), the Potency was inactive: > 76.9 µM.

Consider `Cc1cccc(/N=C/c2c(O)cc(C)oc2=O)n1`, for which the Potency was inactive: > 76.9 µM.

As to `Cn1ccnc1SCc1cn2ccccc2n1`, the Potency is inactive: > 76.9 µM.

Take `Cc1nc(Cl)sc1C(=O)O`: the Potency is inactive: > 76.9 µM.

As to `CCOC(=O)C1CCCN(C2CC(=O)N(c3cccc(C)c3)C2=O)C1` (configuration not stated), the Potency was inactive: > 76.9 µM.

As to `O=C(Nc1nc(-c2ccc3c(c2)OCCO3)cs1)c1ccc(S(=O)(=O)N2CCCCC2)cc1`, the Potency was inactive: > 76.9 µM.
